This is one part of the list. Antibody binding of pooled human sera (four to six donors per pool; dilution not stated) to peptides of the Trypanosoma cruzi antigen TSSA on microarrays. Quantile-normalised fluorescence in arbitrary units, mean of duplicate arrays; higher = more binding. No active / inactive call. The uninfected pools are read here as the healthy donors of the same country. The strongest signals lie near the top of the scale (about 60,000).

The test concerns pooled sera of chronic Chagas disease patients, Argentina. The test is described as follows: antibody binding signal (normalised fluorescence) (arbitrary fluorescence units); higher = stronger serum antibody binding to peptide. The procedure:
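Microarray of 15-residue peptides over residues 30-55 of Trypanosoma cruzi TSSAII, each with 1 to 10 substitutions at naturally variable positions, probed with one serum pool per country.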
For the sequence SGKDKKPAAGGAPSP, the antibody binding signal came to 784.

With KKPAAGETPSQPGAS, the antibody binding signal was 235.

As for GTEKKAATGGTPSPP, the antibody binding signal turned out to be 1140.

EKKTATGGTPSPPGA displayed an antibody binding signal of 761.

In turn, TISTPPSGKEKKAAA displayed an antibody binding signal of 12100.

GTENKAAAGETPSPS came in with an antibody binding signal of 37100.

In turn, KDKKTAAGEAPSPSG yielded an antibody binding signal of 147.

Turning to KENKPATGGAPSPPG, the antibody binding signal turned out to be 511.

In the case of TENKAATGEAPSPSG, the antibody binding signal amounted to 33300.

KPAAGGTPSQPGASS registered an antibody binding signal of 166.

In the case of GTDKKTATGGAPSPS, the antibody binding signal was found to be 810.

As for GTDKKAAAGETPSQP, the antibody binding signal worked out at 343.

Take EKKAAAGETPSPSGA: the antibody binding signal was found to be 1830.

In the case of PPSGKDKKTAAGGTP, the antibody binding signal stood at 851.

In turn, STPPSGTENKTAAGE yielded an antibody binding signal of 49100.

Turning to KDKKTATGEAPSQPG, the antibody binding signal amounted to 4550.

With SGTDNKTAAGETPSP, the antibody binding signal was 212.

Take GKENKTATGETPSPP: the antibody binding signal was determined as 9800.

For SGKDKKPATGGAPSP, the antibody binding signal was determined as 1250.

Consider ENKAAAGGTPSPSGA, for which the antibody binding signal turned out to be 427.

Regarding PPSGKEKKAATGETP, the antibody binding signal came to 3550.

SGTDKKPATGGAPSQ gave an antibody binding signal of 2930.

With TDNKTAAGETPSPPG, the antibody binding signal stood at 196.

NKTATGGAPSPPGAS gave an antibody binding signal of 678.

The sequence EKKAAAGEAPSQPGA gave an antibody binding signal of 5670.

ENKTATGEAPSQSGA returned an antibody binding signal of 14400.

GKDNKAATGGTPSPS yielded an antibody binding signal of 1060.

PSGTDKKTATGETPS gave an antibody binding signal of 1330.

In the case of EKKTAAGEAPSPPGA, the antibody binding signal was found to be 278.

KDNKTAAGGTPSPPG yielded an antibody binding signal of 960.

SGKDKKAATGGTPSQ yielded an antibody binding signal of 708.

On to PPSGKDKKPATGEAP, for which the antibody binding signal stood at 43200.

Sequence TPPSGTEKKTAAGGA registered an antibody binding signal of 28100.

Consider DKKAAAGETPSPPGA, for which the antibody binding signal stood at 445.

For the sequence GTDKKTAAGGTPSPP, the antibody binding signal was determined as 484.

For the sequence GTDKKPAAGGAPSQS, the antibody binding signal came to 457.

TENKAAAGGTPSQPG yielded an antibody binding signal of 34500.

On to KKAAAGETPSPSGAS, for which the antibody binding signal was 168.

In turn, PSGKDKKPAAGGTPS came in with an antibody binding signal of 5490.

On to ISTPPSGKDKKPAAG, for which the antibody binding signal was 17400.

The values are drawn from the supplement of paper PMC10441789.
